Test results taken from PubChem BioAssay AID652011 (Sanford-Burnham Center for Chemical Genomics, 2013).
For part of its entries the source gives two or more results. Only these are listed.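 Rule for the calls: active = IC50 of 10 µM or lower on HIF-2a in both cell lines, but not on HIF-1a; inactive = the rest, including compounds also potent on HIF-1a.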 An entry can have further records. The values listed for one entry repeat one measurement across runs, samples, wells, individuals or studies. A tag in brackets gives the origin of a value. Letters hold for one entry only.

Experiments:
[1] = biological target: Endothelial PAS domain-containing protein 1 (Homo sapiens) (UniProt Q99814); assay: HIF reporter inhibition across pancreatic and renal lines – cell-based, luminescence, MIAPaCa-2, 786-0, panel, SAR follow-up (AID 652011); details: MIAPaCa-2/PANC HIF reporter, luciferase luminescence, desferoxamine, overnight; HIF2a PANC cells; mean of runs
Chain of UniProt Q99814 (Q99814 whole entry, looked up, the tested form may be a part): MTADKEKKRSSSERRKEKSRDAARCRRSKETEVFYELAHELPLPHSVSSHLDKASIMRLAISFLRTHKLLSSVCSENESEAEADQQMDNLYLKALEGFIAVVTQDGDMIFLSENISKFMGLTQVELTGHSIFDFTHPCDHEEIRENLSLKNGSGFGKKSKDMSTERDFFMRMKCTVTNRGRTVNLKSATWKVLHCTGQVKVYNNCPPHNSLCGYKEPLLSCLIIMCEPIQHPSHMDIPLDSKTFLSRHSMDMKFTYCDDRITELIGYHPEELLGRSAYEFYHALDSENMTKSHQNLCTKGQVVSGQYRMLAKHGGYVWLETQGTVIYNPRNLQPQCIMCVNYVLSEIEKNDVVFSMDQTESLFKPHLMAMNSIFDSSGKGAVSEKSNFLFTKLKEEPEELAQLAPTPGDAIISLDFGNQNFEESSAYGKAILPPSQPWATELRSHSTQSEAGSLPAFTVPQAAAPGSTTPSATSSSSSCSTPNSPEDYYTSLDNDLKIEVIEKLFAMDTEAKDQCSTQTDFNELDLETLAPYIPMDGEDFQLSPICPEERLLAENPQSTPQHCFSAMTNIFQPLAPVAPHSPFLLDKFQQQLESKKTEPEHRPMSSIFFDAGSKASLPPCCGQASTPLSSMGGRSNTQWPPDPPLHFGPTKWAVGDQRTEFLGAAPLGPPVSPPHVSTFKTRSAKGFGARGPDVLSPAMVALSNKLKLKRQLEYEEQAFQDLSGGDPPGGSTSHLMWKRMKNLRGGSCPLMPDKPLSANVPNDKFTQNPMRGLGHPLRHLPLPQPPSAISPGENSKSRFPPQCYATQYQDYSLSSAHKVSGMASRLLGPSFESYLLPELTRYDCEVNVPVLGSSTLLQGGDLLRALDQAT
Procedure, shortened: (§1)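 Detection: luminescence, One-Glo; Reagent: desferoxamine; Incubation: overnight seeding and compound exposure, 37 °C, 5% CO2, 10-min detection.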

HIF2a PANC = assay: as above; details: MIAPaCa-2/PANC HIF reporter, luciferase luminescence, desferoxamine, overnight, run 2, individual run IC50, panel line
Procedure, shortened: as §1

SMILES | IC50 [1] | IC50 (HIF2a PANC)
CC(C)(C)c1ccc(-c2noc(CCC(=O)NCc3ccco3)n2)cc1 | < 190 nM [sample A] and inactive [sample B] | < 190 nM [sample A] and > 99 µM [sample B]
CCNC(=O)CCc1nc(-c2ccc(C(C)(C)C)cc2)no1 | inactive [sample A] and < 190 nM [sample B] | –
